# Scores whose standard error is large were omitted. The source holds two more conditions with little spread; they are left out. Read del as a deletion of the residues named and ins as an insertion between two positions. For some of these results: How much ogerin was present is not stated here.
# B1: GPR68, Q15743 (parent)
# chain: MGNITADNSSMSCTIDHTIHQTLAPVVYVTVLVVGFPANCLSLYFGYLQIKARNELGVYLCNLTVADLFYICSLPFWLQYVLQHDNWSHGDLSCQVCGILLYENIYISVGFLCCISVDRYLAVAHPFRFHQFRTLKAAVGVSVVIWAKELLTSIYFLMHEEVIEDENQHRVCFEHYPIQAWQRAINYYRFLVGFLFPICLLLASYQGILRAVRRSHGTQKSRKDQIQRLVLSTVVIFLACFLPYHVLLLVRSVWEASCDFAKGVFNAYHFSLLLTSFNCVADPVLYCFVSETTHRDLARLRGACLAFLTCSRTGRAREAYPLGAPEASGKSGAQGEEPELLTKLHPAFQTPNSPGSGGFPTGRLA
# What was measured:
# [1] = variants of: B1; test: cAMP reporter score (Enrich2 score, wild type = 0); higher = more signal; HEK293T, FACS bins
# [2] = variants of: B1; test: surface expression score (Enrich2 score, wild type = 0); higher = more signal; HEK293T, FACS bins
Variant,cAMP reporter score ([1]; pH 5.5),cAMP reporter score ([1]; pH 6),"cAMP reporter score ([1]; pH 6, modulator: ogerin)","cAMP reporter score ([1]; pH 6.5, modulator: ogerin)",surface expression score [2]
E337A,0.755,0.901,1.09,1.23,-0.135
E337C,-0.427,-1.74,0.773,0.269,–
E337D,0.361,-0.244,0.109,0.274,-0.064
E337F,1.09,-0.675,-0.306,-0.191,0.04
E337G,1.63,0.825,2.09,1.35,0.775
E337H,-0.16,0.296,-0.258,-0.638,-0.288
E337I,0.455,0.279,1.3,-0.455,2.3
E337K,-0.165,0.396,-0.268,-0.34,-0.776
E337L,-0.119,-0.056,-0.516,-0.405,-0.419
E337M,-0.555,-0.438,0.665,–,0.686
E337N,0.54,-0.187,0.89,0.919,0.392
E337P,0.221,0.014,0.212,0.523,-0.088
E337Q,1.29,0.738,1.25,1.45,0.19
E337R,0.153,-1.06,0.238,0.273,-0.133
E337S,0.313,–,-0.703,-1.98,2.08
E337W,-0.115,-0.643,0.01,-0.207,–
E337Y,-0.469,0.859,-0.329,-0.201,-0.731
E337_P338insG,0.022,-0.676,0.261,-0.278,-0.351
P338_E339insG,0.19,-0.681,0.551,0.676,0.463
E339A,0.797,-0.236,0.853,0.385,0.014
E339C,0.636,–,0.347,-0.538,0.406

Variant,cAMP reporter score ([1]; pH 5.5),cAMP reporter score ([1]; pH 6),"cAMP reporter score ([1]; pH 6, modulator: ogerin)","cAMP reporter score ([1]; pH 6.5, modulator: ogerin)",surface expression score [2]
E339D,0.789,0.923,0.036,0.71,0.079
E339F,1.55,–,2.7,1.94,2.62
E339G,1.51,0.909,1.41,1.26,0.356
E339H,0.812,0.775,0.87,0.463,0.665
E339I,1.09,–,0.086,0.226,0.051
E339K,-0.035,0.01,-0.335,0.28,0.285
E339L,0.56,–,1.22,-0.124,0.143
E339M,-0.359,-0.808,-0.444,-0.814,0.022
E339P,-0.148,-1.21,-0.419,0.551,0.091
E339Q,-0.444,–,-0.509,-1.01,0.567
E339R,1.33,-0.17,0.517,0.539,1.03
E339S,1.14,0.882,0.768,1.33,1.51
E339T,0.902,–,0.128,0.656,0.108
E339V,0.074,0.979,-0.044,0.921,0.139
E339W,-0.637,-0.896,-0.361,-1.01,-0.852
E339Y,0.207,-0.269,-0.062,-0.136,-0.32
E339_L340insG,0.845,-1.29,0.047,1.03,0.334
E339_L341del,1.23,1.35,1.9,1.02,1.34
L340A,0.096,-0.308,0.339,0.371,0.113
L340C,1.73,1.08,1.73,0.687,–
L340D,0.48,0.55,0.899,1.03,0.84

Variant,cAMP reporter score ([1]; pH 5.5),cAMP reporter score ([1]; pH 6),"cAMP reporter score ([1]; pH 6, modulator: ogerin)","cAMP reporter score ([1]; pH 6.5, modulator: ogerin)",surface expression score [2]
L340E,0.246,-0.327,0.027,0.166,0.605
L340F,0.471,-0.27,0.22,0.451,0.539
L340G,1.03,0.703,1.8,0.926,1.04
L340H,0.9,0.592,1.7,1.34,0.817
L340I,1.21,1.32,0.517,0.865,0.897
L340K,1.11,0.187,0.602,1.42,1.87
L340M,0.114,-0.828,-0.249,0.194,-0.092
L340N,0.643,0.62,0.303,0.835,0.483
L340P,1.07,0.142,2.11,0.63,0.991
L340Q,1.48,0.513,0.071,1.51,–
L340R,0.342,–,0.449,–,0.313
L340S,1.06,–,-0.132,0.349,-0.115
L340T,0.207,0.514,0.21,-0.007,0.298
L340V,0.708,0.044,0.757,0.064,1.21
L340W,0.789,–,0.789,1.09,-0.114
L340Y,1.31,1.28,-0.309,–,0.418
L340_L341insGS,1.84,0.201,2.28,2.51,2.61
L340_L341insGSG,0.975,0.688,1.22,1.56,1.09
L340_T342del,0.629,1.79,0.752,1.84,0.737
L341_K343del,0.774,-0.001,0.704,1.71,0.745
T342A,0.88,0.203,1.36,-0.032,0.97
